Reference: PubChem BioAssay AID1347165 (National Center for Advancing Translational Sciences (NCATS), 2019)
Among all 220,000 compounds or so, about 5,700 (2.6%) were called active. The inconclusive results got no clear call from the source; some entries with a clear call stand among them for comparison. Calls come from the whole dose curve; as a rule, active = well fitted inhibition curve with a large enough effect; inconclusive = small, poorly fitted or top-dose-only effect; inactive = no such curve, though single readings can be large or run the other way. Potencies beside an inconclusive call are fits to weak or partial responses and may not hold up.

Target: Lysine-specific demethylase 5B (Homo sapiens) (UniProt Q9UGL1)
Chain of UniProt Q9UGL1 (Q9UGL1 whole entry, looked up): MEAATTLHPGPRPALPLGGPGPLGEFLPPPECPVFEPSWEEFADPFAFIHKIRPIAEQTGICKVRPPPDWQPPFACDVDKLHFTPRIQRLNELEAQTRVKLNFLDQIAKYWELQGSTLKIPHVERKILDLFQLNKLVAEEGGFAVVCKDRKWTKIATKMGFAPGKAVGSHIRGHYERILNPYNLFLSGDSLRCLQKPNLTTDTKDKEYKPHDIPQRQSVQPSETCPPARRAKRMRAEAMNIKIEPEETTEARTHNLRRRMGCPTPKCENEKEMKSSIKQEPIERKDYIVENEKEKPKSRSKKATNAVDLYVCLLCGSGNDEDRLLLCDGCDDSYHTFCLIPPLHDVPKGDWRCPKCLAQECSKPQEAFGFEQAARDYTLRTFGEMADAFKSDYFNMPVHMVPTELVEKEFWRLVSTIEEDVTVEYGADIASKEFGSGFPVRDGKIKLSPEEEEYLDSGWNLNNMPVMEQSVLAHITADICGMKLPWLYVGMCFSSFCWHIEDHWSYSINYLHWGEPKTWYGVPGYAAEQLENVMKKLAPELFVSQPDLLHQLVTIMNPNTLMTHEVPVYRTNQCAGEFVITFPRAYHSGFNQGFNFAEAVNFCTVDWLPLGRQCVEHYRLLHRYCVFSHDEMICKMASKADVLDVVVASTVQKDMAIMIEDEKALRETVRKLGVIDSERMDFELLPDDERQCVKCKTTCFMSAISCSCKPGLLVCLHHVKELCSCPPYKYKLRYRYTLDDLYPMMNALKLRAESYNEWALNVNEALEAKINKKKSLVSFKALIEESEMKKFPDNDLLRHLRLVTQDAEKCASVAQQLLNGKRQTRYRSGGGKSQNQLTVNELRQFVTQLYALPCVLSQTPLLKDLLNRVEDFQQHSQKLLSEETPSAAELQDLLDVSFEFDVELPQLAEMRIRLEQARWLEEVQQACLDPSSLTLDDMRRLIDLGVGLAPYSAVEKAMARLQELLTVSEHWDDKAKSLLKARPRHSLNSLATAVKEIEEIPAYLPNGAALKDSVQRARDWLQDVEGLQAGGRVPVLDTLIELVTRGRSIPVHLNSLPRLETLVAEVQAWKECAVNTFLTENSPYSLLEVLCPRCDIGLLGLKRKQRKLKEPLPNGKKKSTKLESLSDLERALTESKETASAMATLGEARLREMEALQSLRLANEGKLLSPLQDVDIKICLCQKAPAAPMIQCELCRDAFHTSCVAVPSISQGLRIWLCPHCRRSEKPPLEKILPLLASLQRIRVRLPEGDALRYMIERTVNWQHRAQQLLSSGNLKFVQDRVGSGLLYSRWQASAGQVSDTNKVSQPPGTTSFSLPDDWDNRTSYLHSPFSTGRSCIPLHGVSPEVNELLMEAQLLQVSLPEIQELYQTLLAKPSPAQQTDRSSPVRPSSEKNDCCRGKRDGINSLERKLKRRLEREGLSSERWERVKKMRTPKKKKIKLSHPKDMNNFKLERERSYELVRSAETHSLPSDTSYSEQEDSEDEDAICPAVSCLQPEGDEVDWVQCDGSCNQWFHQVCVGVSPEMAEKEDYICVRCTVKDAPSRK
Assay: Primary screen for KDM5B Histone Demethylases FDH-coupled qHTS; note: nearly all actives have a fitted effect of over 70% in size; for activity change, negative = inhibition: 0% is about no effect
Settings: FDH-coupled NADH fluorescence (FDH is formaldehyde dehydrogenase); activity change, negative = inhibition: at 57.7 µM (top of the series) unless noted
Procedure, shortened: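 Compound dilutions met 200 nM (final) KDM5BΔAP for 10 min at room temperature before substrate addition. The substrate mix held 12.5 µM H3K4me3 with cofactors 25 µM α-ketoglutarate and 50 µM Fe²⁺. NADH signal gain over 30 min defined activity.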
Potency is the fitted concentration of half-maximal effect; tags give direction and shape of the fitted curve.

Row | Compound | Potency | activity change, negative = inhibition
1 | Cc1oc2ccc(O)c(CN3CCCCCC3)c2c1C(=O)Nc1cccc(C(F)(F)F)c1 | inconclusive: 10 µM [inhibitor, partial curve, poor fit] | –
2 | COc1cc(NC(=O)c2ccccc2F)c(OC)cc1NC(=O)CN1CCCCC1 | inconclusive: 39.8 µM [inhibitor, single point] | –
3 | Cc1ccc(C)c(N2CCN(C(=O)Cn3nc(C)c4sc5ccccc5c4c3=O)CC2)c1 | – | inactive: -5.55%
4 | COc1nccnc1-c1cc(NCCN(C)C)nc2[nH]ccc12 | inconclusive: 8.91 µM [inhibitor, partial curve] | –
5 | Cc1ccc(CN2CC[C@@H]3OCC(=O)N(Cc4ccccc4)[C@H]3CC2)o1 | inconclusive: 44.7 µM [inhibitor, single point] | –
6 | O=C1CC2CS(=O)(=O)CC2N1c1ccc(N2CCOCC2)cc1 (centres undefined) | – | inactive: 9.91%
7 | COc1ccc(CN2CCC3(Cc4ccccc4CNC3=O)C2)c(OC)n1 (centres undefined) | inactive | –
8 | CCOc1ccccc1NC(=O)c1ncoc1-c1ccc(C)o1 | inconclusive: 39.8 µM [inhibitor, single point] | –
9 | Clc1cccc(Cl)c1CNc1n[nH]c(-c2ccco2)n1 | – | inactive: 6.93%
10 | O=Cc1cccc(-c2cncnc2)c1 | – | inactive: 3.92% [at 230 µM]
11 | COC(=O)[C@H](Cc1ccccc1)NC(=O)Nc1ccc2oc(-c3cccnc3)nc2c1 | inconclusive: 28.2 µM [inhibitor, partial curve, poor fit] | –
12 | O=C(NCc1cccs1)c1cc(-c2cccnc2)c2nncn2n1 | active: 100 µM | –
13 | CCC(=O)Nc1ccc(-c2nc3ccccc3o2)cc1 | inconclusive: 17.8 µM [inhibitor, partial curve, poor fit] | –
14 | CCOc1ccccc1NC(=O)Cn1c(=O)n(Cc2ccco2)c(=O)c2sc3ccccc3c21 | inconclusive: 1.78 µM [inhibitor, full curve, poor fit] | –
15 | O=C(Cc1ccc(F)cc1)N1CCCC(c2nn(-c3ccc(Cl)cc3)c(=O)[nH]2)C1 (centres undefined) | – | inactive: -5.65%
16 | Cc1cc(NC(=O)c2ccc([N+](=O)[O-])o2)cc(-c2nc3ccccc3o2)c1O | – | inactive: -6.05%
17 | CN1CCCC1CCNc1nccc(-c2cnn(-c3ccc(F)cc3)c2)n1 (centres undefined) | active: 28.2 µM | –
18 | Cn1cccc1CN1CCC2(C1)C(=NC1CCCC1)NC(=O)N2c1cccnc1 (centres undefined) | inconclusive: 0.794 µM [inhibitor, full curve, poor fit] | –
19 | COc1ccc(CCC(=O)N2CCC3(CC2)CC(C(=O)N2CCOCC2)N(C)C3)cc1 (centres undefined) | inconclusive: 39.8 µM [inhibitor, single point] | –
20 | CC(C)c1ccc(NC(=O)c2ccc(=O)n(Cc3ccccc3)c2)cc1 | inconclusive: 25.1 µM [inhibitor, partial curve, poor fit] | –
21 | COc1ccccc1NC(=O)CSc1nnc(C)n1-n1cccc1 | – | inactive: 18.8%
22 | Cc1nnc(NC(=O)c2ccccc2NC(=O)c2ccccc2)s1 | inconclusive: 28.2 µM [inhibitor, single point] | –
23 | CSc1nnc(NC(=O)c2cc(=O)c3cccc(C)c3o2)s1 | – | inactive: 6.23%

Row | Compound | Potency | activity change, negative = inhibition
24 | COCCn1cnnc1CCNC(=O)c1oc2cc(OC)ccc2c1C | active: 28.2 µM | –
25 | O=C(c1nnc(COc2ccc3c(c2)OCO3)n1-c1ccccc1)N1CCC[C@@H]1c1nc2ccccc2[nH]1 | inconclusive: 31.6 µM [inhibitor, single point] | –
26 | Cc1nc2nc(NCc3ccc(Br)cc3)[nH]n2c(=O)c1Cc1ccccc1 | inconclusive: 2.24 µM [inhibitor, full curve, poor fit] | –
27 | COc1ccc(OC)c([S+](=O)([O-])c2nnn3c2nc(N2CCC(F)CC2)c2ccccc23)c1 | active: 50.1 µM | –
28 | O=C(Nc1ccc(C23CC4CC(CC(C4)C2)C3)cc1)c1ccc(Cl)cc1Cl | – | inactive: 17.2%
29 | C/C(=N\OC(=O)c1ccc(F)cc1)c1ccc(C)cc1 | – | inactive: 3.14%
30 | Cc1cc(C)c(NC(=O)c2ccc(CSc3ccc(Cl)cc3)cc2)c(C)c1 | – | inactive: 26.8%
31 | Cc1ccc(-c2cc(C(=O)N3CCNC(=O)C3)c3ccccc3n2)cc1 | inconclusive: 22.4 µM [inhibitor, partial curve, poor fit] | –
32 | Cc1cccn2c(=O)c(C(=O)N3CCN(c4ccccc4)CC3)cnc12 | inconclusive: 15.8 µM [inhibitor, partial curve, poor fit] | –
33 | CC(C)C1Cc2ccccc2-c2[nH]c(=S)[nH]c(=O)c21 (centres undefined) | inconclusive: 39.8 µM [inhibitor, single point] | –
34 | CN(C)S(=O)(=O)Nc1cccc(NC(=O)CC23CC4CC(CC(C4)C2)C3)c1 | inconclusive: 31.6 µM [inhibitor, partial curve, poor fit] | –
35 | Cc1ccc(-n2c(=O)c3oc4ccccc4c3n(Cc3cccc(F)c3)c2=O)cc1C | inconclusive: 1.41 µM [inhibitor, full curve, poor fit] | –
36 | CC1CCCCC1NC(=O)CSc1ccc2c(c1)OCCCO2 (centres undefined) | – | inactive: 3.08%
37 | O=C(O)CCn1ccc2cc(S(=O)(=O)N3CCCCCC3)ccc21 | inconclusive: 25.1 µM [inhibitor, partial curve, poor fit] | –
38 | CCCN(CC#N)CC(=O)NC1(C#N)CCCCCC1 | – | inactive: 19.9%
39 | COCCNc1ncc(-c2ccc(F)cc2)c2c1OCC2 | active: 31.6 µM | –
40 | CCCc1cc(=O)oc2cc(C)cc(OC(C)C(=O)NCc3ccncc3)c12 (centres undefined) | inconclusive: 25.1 µM [inhibitor, partial curve, poor fit] | –
41 | Cc1cccc(C(=O)N2CCN(c3oc(-c4ccco4)nc3C#N)CC2)c1 | inconclusive: 22.4 µM [inhibitor, partial curve, poor fit] | –
42 | O=C(OCc1c(F)cccc1Cl)c1ccc(C2Nc3ccccc3S(=O)(=O)N2)cc1 (centres undefined) | inconclusive: 31.6 µM [inhibitor, partial curve, poor fit] | –
43 | CN(C)c1ccc(CNC(=O)c2ccc3nc(Cc4ccccc4)oc3c2)cc1 | inconclusive: 14.1 µM [inhibitor, partial curve, poor fit] | –
44 | CN(CC(=O)Nc1cccc(F)c1)C(=O)Cc1csc(-c2cccc(Br)c2)n1 | – | inactive: -34.1%
45 | COCCN1CCOc2nc(-c3cc(F)cc(OC)c3)ncc2C1=O | active: 31.6 µM | –
46 | CC(Cc1ccc(Br)cc1)NC(=O)C1CCCCC1 (centres undefined) | – | inactive: -4.15%

Row | Compound | Potency | activity change, negative = inhibition
47 | O=C1Nc2ccccc2CN(Cc2ccc(F)cc2)C12CCNCC2 | active: 44.7 µM | –
48 | Cc1ccc(C(=O)C2=C(O)C(=O)N(Cc3ccco3)C2c2cccc(Br)c2)o1 (centres undefined) | inconclusive: 17.8 µM [inhibitor, partial curve, poor fit] | –
49 | COCCOc1ccnc(-c2noc([C@@H]3CCCN3CC3CC3)n2)c1 | inconclusive: 31.6 µM [inhibitor, single point] | –
50 | CN1CCN(C(=O)c2cc(-c3ccccn3)nc3ccccc23)CC1 | – | inactive: 2.41%
51 | COc1ccccc1CC(=O)N1CCC2(CC1)NC(=O)N(c1ccccc1)N2 | inconclusive: 15.8 µM [inhibitor, partial curve] | –
52 | CCc1ccc(C2CC(=O)Nc3c2c(=O)nc2c(C)cccn32)cc1 (centres undefined) | inconclusive: 31.6 µM [inhibitor, partial curve, poor fit] | –
53 | OCc1cccc(-c2cc(-c3ccncc3)c3cncn3c2)c1 | inconclusive: 31.6 µM [inhibitor, partial curve] | –
54 | COc1cc(C2C(C(=O)OC(C)C)=C(C)Nc3nc4ccccc4n32)cc(OC)c1O (centres undefined) | inconclusive: 31.6 µM [inhibitor, single point] | –
55 | Cc1ccc(CNC(=O)c2c(Nc3c(C)cccc3C)sc(C(=O)c3ccccc3)c2N)cc1 | inconclusive: 22.4 µM [inhibitor, single point] | –
56 | NC(=O)c1ccc(NC(=O)C2=C(c3ccccc3)SCCO2)cc1 | – | inactive: 13.7%
57 | COc1cc(NC(=O)c2nn(C)c3c2COc2ccccc2-3)cc(OC)c1OC | inconclusive: 35.5 µM [inhibitor, partial curve, poor fit] | –
58 | Cc1oc(-c2cccs2)nc1CC(=O)Nc1ccc(F)c(F)c1 | inconclusive: 20 µM [inhibitor, partial curve, poor fit] | –
59 | COc1ccc(CCNC(=O)c2ccc(Cn3c(SCc4ccccc4)nc4cccnc43)cc2)cc1 | inconclusive: 35.5 µM [inhibitor, partial curve, poor fit] | –
60 | O=C(NCc1ccco1)c1cc2cc(Br)ccc2o1 | inconclusive: 20 µM [inhibitor, partial curve, poor fit] | –
61 | CCc1cnc2c(c1SC(C(C)=O)C(=O)N(C)C)c(=O)n(C)c(=O)n2C (centres undefined) | inconclusive: 39.8 µM [inhibitor, single point] | –
62 | CCOc1ccccc1NC(=O)Cn1c(=O)c(-c2noc(C)n2)c2n(c1=O)CCCC2 | – | inactive: -22.1%
63 | Cc1cccc(-c2ccccc2N)c1 | inconclusive: 35.5 µM [inhibitor, single point] | –
64 | Cc1ccc(CNC(=O)c2c(Nc3ccccc3C)sc(C(=O)c3ccc(F)cc3)c2N)cc1 | inconclusive: 7.94 µM [inhibitor, partial curve, poor fit] | –
65 | COc1ccc(CC(=O)N(C)C2CCc3nnc(C)n3CC2)cc1Cl (centres undefined) | active: 20 µM | –
66 | COc1cccc(-c2nn(C)c3sc(C(=O)NCc4ccc(OC)cc4OC)cc23)c1 | inconclusive: 28.2 µM [inhibitor, partial curve, poor fit] | –
67 | O=C(c1ccc(Cl)cc1)N1CC2(CCCN2Cc2cccnc2)Cc2ccccc21 (centres undefined) | – | inactive: -16.1% [at 115 µM]
68 | Cc1ccc(C(=O)N(Cc2ccco2)c2ccccn2)cc1 | inconclusive: 31.6 µM [inhibitor, single point] | –
69 | CN(CCC#N)C(=O)c1cc2c(s1)-c1ccccc1SC2 | inconclusive: 25.1 µM [inhibitor, partial curve, poor fit] | –
